# Measured values: PubChem BioAssay AID686979 (National Center for Advancing Translational Sciences (NCATS), 2013)
# Several values for one entry are separate records, joined by “and”; a condition that tells them apart may be missing. Identical values can stand only once. About 50,000 (12%) of roughly 420,000 compounds were called active. Inconclusive means that the source gave no clear call. Such entries were picked first, then a sample of the others. The call rests on the fitted dose curve; in most records, active means well fitted inhibition curve with a large enough effect; inconclusive means small, poorly fitted or top-dose-only effect; inactive means flat fitted curve, though single readings scatter. Potencies beside an inconclusive call are fits to weak or partial responses and may not hold up.
# Test: qHTS for Inhibitors of human tyrosyl-DNA phosphodiesterase 1 (TDP1): qHTS in cells in presence of CPT; further: nearly all actives have a fitted effect of over 55% in size
# Settings: chicken DT40 Tdp1-/-;hTDP1 cells + 20 nM CPT, ATP luminescence, 48 h; activity change, negative = growth inhibition: at 46.2 µM (top of the series) unless noted
# Outline: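 Cell growth measured by CellTiter-Glo luminescence after a minimum 48 h, 37 C compound exposure with 20 nM CPT in Tdp1-knockout DT40 cells stably expressing hTDP1, seeded 400/well; qHTS titration format.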
# On the % scale 0 is the no-effect control and ±100 the full control effect; potency means the concentration at half of the fitted maximal effect; tags describe the fitted curve by direction and shape.
SMILES,Potency,"activity change, negative = growth inhibition"
Cc1ccc2c(CC(=O)Nc3ccc(S(=O)(=O)N4CCCCC4C)cc3)coc2c1 (centres undefined),"inconclusive: 16.4 µM [inhibitor, single point]",–
COC(=O)COc1ccc2oc(-c3ccc(OC)cc3)cc(=O)c2c1,–,inactive: -1.56%
CCc1ccccc1Nc1nc(N)nc(COC(=O)C2CCN(C(=O)c3ccc(F)cc3)CC2)n1,–,inactive: 2%
CC[N+]1=CN(c2ccccc2)C(C)=CC1(C)C,"inconclusive: 23.1 µM [inhibitor, single point]",–
O=C(CSC1=NC(=O)C(c2ccccc2)C(=O)N1)Nc1ccccc1[N+](=O)[O-] (centres undefined),–,inactive: 1.73%
COc1ccc(C2/C=C\CN(C(=O)c3ccc(C)cc3)[C@H](Cc3ccccc3)C(=O)N2Cc2ccc(F)cc2)cc1 (some centres undefined),active: 4.61 µM,–
Cc1ccc(-c2onc3ccc(C(=O)/C=C/N(C)C)cc23)cc1,"inconclusive: 20.6 µM [inhibitor, partial curve]",–
CCN(CC)C(=O)COc1ccc(/C=N/NC(=O)c2cc(-c3ccccc3OC)nc3ccccc23)cc1OC,–,inconclusive: -30.1% [inhibitor]
CS(=O)(=O)Nc1cccc(C2=NN(C(=O)CCCC(=O)O)C(c3cccs3)C2)c1 (centres undefined),–,inactive: 6.63%
O=C(Cn1cnc2c(nnn2-c2cccc(Cl)c2)c1=O)N1CCOCC1,–,inactive: -4.92%
O=C(Nc1ccccc1)Nc1ccc2snnc2c1,"inconclusive: 23.1 µM [inhibitor, single point]",–
Cc1[nH]c2ccccc2c1C(=O)COC(=O)CCS(=O)(=O)c1ccccc1Cl,"inconclusive: 23.1 µM [inhibitor, single point]",–
Nc1c(Br)cc(C=O)cc1Br,"inconclusive: 1.78 µM [inhibitor, full curve, poor fit]",–
O=C(CCC1CCCN(C(=O)c2ccc3cc[nH]c3c2)C1)N1CCN(c2ccccn2)CC1 (centres undefined),active: 16.4 µM,–
Cc1ccc(-n2c(C)cc(/C=c3/sc4nc5ccccc5n4c3=O)c2C)cc1,active: 16.4 µM,–
CCS(=O)(=O)c1ncc(Cl)c(C(=O)Nc2ccc(S(=O)(=O)N3CCC(C)CC3)cc2)n1,active: 1.84 µM,–
CC(C)(C)NS(=O)(=O)c1ccc(NC(=O)C2CCCCC2)cc1,"inconclusive: 9.2 µM [inhibitor, partial curve]",–
CSc1cccc(Nc2cc(C(=O)NCCc3ccc(Cl)cc3)c3ccccc3n2)c1,active: 4.61 µM,–
CCCN1CCC(Oc2cccc(C(=O)NCCc3ccccc3)c2)CC1,"inconclusive: 25.9 µM [inhibitor, single point]",–
Cn1c(=O)[nH]c(=O)c2c1nc(CN1CCN(c3ccccc3F)CC1)n2CCc1ccccc1,"inconclusive: 18.4 µM [inhibitor, single point]",–
O=S(=O)(O)c1ccc2c(N=Nc3ccc(S(=O)(=O)O)c4ccccc34)c(O)c(S(=O)(=O)O)cc2c1,"inconclusive: 17.8 µM [inhibitor, partial curve] and inconclusive: 16.8 µM [inhibitor, partial curve, poor fit]",–
CNC(=O)c1cc2c(ccc3ccccc32)o1,–,inactive: 1.78%

SMILES,Potency,"activity change, negative = growth inhibition"
CCOC(=O)C1=CCN(S(=O)(=O)c2ccccc2C)C1c1cccc(Br)c1 (centres undefined),"inconclusive: 29.1 µM [inhibitor, single point]",–
CCOc1ccc2nc(N3CCC(C(=O)Nc4ccccc4CC)CC3)sc2c1,"inconclusive: 23.1 µM [inhibitor, single point]",–
CC(NC(=O)COC(=O)CNS(=O)(=O)/C=C/c1ccccc1)c1ccccc1 (centres undefined),–,inactive: -18.7%
COc1cccc(C2NC(=O)NC(C)=C2C(=O)OCC2CCCCC2)c1 (centres undefined),"inconclusive: 18.4 µM [inhibitor, single point]",–
O=C(COC(=O)c1ccc2c(c1)S(=O)(=O)N=C1CCCCCN12)NCCc1ccc(F)cc1,–,inactive: -16.1%
CCc1ccc(NC(=O)CSc2nnc(-c3ccco3)o2)cc1,–,inactive: -14.8%
CCN(c1ccccc1)S(=O)(=O)c1ccc(NC(=S)NC(=O)c2cccs2)cc1,"inconclusive: 16.4 µM [inhibitor, single point]",–
CC1CCCC(C)N1C(=O)COc1ccc(C(=O)Nc2ccccc2N2CCOCC2)cc1 (centres undefined),"inconclusive: 29.1 µM [inhibitor, single point]",–
CC1CN(C(=O)N2CCC(C(=O)N3CCN(c4ccccc4)CC3)CC2)c2cc(Cl)ccc2O1 (centres undefined),active: 13 µM,–
O=S(=O)(c1cccs1)N1CN(Cc2ccccc2)c2nc3ccccc3nc21,"inconclusive: 14.6 µM [inhibitor, partial curve]",–
CCOC(=O)c1ccc2[nH]c3c(c2c1)CCCCC3=O,"inconclusive: 20.6 µM [inhibitor, partial curve]",–
c1ccc(-c2nc(CSc3nnnn3-c3ccccc3)cs2)cc1,"inconclusive: 25.9 µM [inhibitor, single point]",–
CN(C)S(=O)(=O)c1cccc(C(=O)Nc2ccc(S(=O)(=O)N3CCCC3)cc2)c1,"inconclusive: 29.1 µM [inhibitor, single point]",–
Cc1ccc(CCNc2ncnc3onc(-c4ccc(F)cc4)c23)cc1,–,inactive: -1.09%
CCCCN(CCC(=O)O)c1ccc(/C=C/c2ccnc3ccccc23)cc1,active: 5.62 µM,–
Cc1cccc(Oc2nc(CN3CCOCC3)nc3sc4c(c23)CCCC4)c1,"inconclusive: 20.6 µM [inhibitor, single point]",–
CSc1cccc(NC(=O)CCc2ccccc2)c1,–,inactive: -1.8%
COc1cc(CN2CCN(c3ccccc3F)CC2)c([N+](=O)[O-])cc1OC,"inconclusive: 29.1 µM [inhibitor, single point]",–
COc1ccc(OC)c(NC(=O)CSc2ncnc3c2cnn3-c2ccccc2Cl)c1,active: 2.06 µM,–
CN(C)C(=O)NC1CCCCCCCCCCC1,"inconclusive: 29.1 µM [inhibitor, single point]",–
CC(C)C(=O)N1c2nc(-c3ccco3)nn2C2(CCCCC2)[C@@H]2CCCC[C@@H]21,–,inactive: -22.1%
CC(=O)Nc1ccc(S(=O)(=O)N2CCC(c3nnc(-c4ccc(C)cc4)o3)CC2)cc1,"inconclusive: 25.9 µM [inhibitor, single point] and inconclusive: 29.1 µM [inhibitor, single point]",–
